According to the antibiotic and cytotoxicity screens of Wong et al. (2023):
The other results are listed elsewhere or left out.

system: HepG2; assay: cytotoxicity call (relative viability < 0.9); details: 10 µM

Row | Compound | cytotoxicity call
1 | O=C(C[C@@H]1CC[C@H](NC(=O)Nc2ccc3c(c2)OCO3)[C@H](CO)O1)NCCCN1CCOCC1 | inactive
2 | Clc1ccc(-c2cnc3ccc(-c4ccccc4)cn23)cc1 | inactive
3 | C[C@H]1CN([C@@H](C)CO)C(=O)Cc2cc(NC(=O)Nc3ccc(F)cc3)ccc2O[C@H]1CN(C)Cc1ccc(C(F)(F)F)cc1 | active
4 | CN(C)CC(=O)N[C@H]1C=C[C@H](CC(=O)NCCN2CCCCC2)O[C@H]1CO | inactive
5 | Cc1noc(C)c1NC(=O)Nc1ccc2c(c1)C(=O)N([C@H](C)CO)C[C@H](C)[C@@H](CN(C)CC1CC1)OCCCC[C@H](C)O2 | inactive
6 | C[C@H]1CCCCO[C@@H](CN(C)C(=O)Cc2ccccc2)[C@@H](C)CN([C@@H](C)CO)C(=O)c2cc(NS(=O)(=O)c3ccc(Cl)cc3)ccc2O1 | inactive
7 | COc1cc2c(cc1OC)CN(C(=O)[C@@H]1[C@H]3C(=O)O[C@H](c4ccccc4)[C@H](c4ccccc4)N3[C@H](c3ccc(OCCO)cc3)[C@@]13C(=O)Nc1ccc(C#CC4(O)CCCCCC4)cc13)CC2 | active
8 | S=c1[nH]c2ccccc2s1 | inactive
9 | COc1ccccc1CN1C[C@@H](C)[C@H](OC)CN(C)C(=O)c2cc(NC(=O)Nc3ccccc3OC)ccc2OC[C@H]1C | inactive
10 | O=C(Nc1cc(Cl)ccc1Cl)c1cc(Br)ccc1NS(=O)(=O)c1ccc(Cl)c([N+](=O)[O-])c1 | active
11 | C[C@@H]1CN([C@@H](C)CO)C(=O)c2cc(NS(=O)(=O)c3cn(C)cn3)ccc2O[C@@H]1CN(C)CC1CCCCC1 | inactive
12 | C[C@H]1CN([C@@H](C)CO)C(=O)c2cccc(NS(C)(=O)=O)c2O[C@H]1CN(C)C(=O)NC1CCCCC1 | inactive
13 | COCCN[C@H]1CS(=O)(=O)C[C@@H]1O | inactive
14 | C=CCOC(=O)[C@H]1[C@@H]2C(=O)O[C@@H](c3ccccc3)[C@@H](c3ccccc3)N2[C@@H](c2ccc(OCCOC(=O)[C@@H]3C[C@@H]4C(=O)N[C@@H](Cc5ccccc5)C(=O)N4[C@@H]3c3ccc(O)cc3)cc2)[C@]12C(=O)Nc1ccccc12 | inactive
15 | C[C@@H]1CN([C@@H](C)CO)C(=O)c2cc(NS(=O)(=O)c3cccs3)ccc2O[C@@H]1CN(C)Cc1ccc(Cl)c(Cl)c1 | inactive
16 | COc1ccc(CN(C)C[C@H]2OCCCC[C@@H](C)Oc3ccc(NC(=O)Nc4ccc5c(c4)OCO5)cc3C(=O)N([C@@H](C)CO)C[C@@H]2C)cc1 | inactive
17 | COCC(=O)Nc1ccc2c(c1)C(=O)N(C)C[C@H](OC)[C@@H](C)CN(Cc1ccccc1F)[C@H](C)CO2 | inactive
18 | CN1CCN(C(=O)C[C@@H]2CC[C@H](NC(=O)c3ccc4c(c3)OCO4)[C@@H](CO)O2)CC1 | inactive
19 | CO[C@@H]1CN(C)C(=O)c2cc(NS(C)(=O)=O)ccc2OC[C@H](C)N(C(=O)C2CCOCC2)C[C@H]1C | inactive
20 | C[C@@H]1CN([C@H](C)CO)C(=O)CCCn2nncc2CO[C@H]1CN(C)S(=O)(=O)c1ccc(Oc2ccccc2)cc1 | inactive

Row | Compound | cytotoxicity call
21 | C[C@]12CC3CC(N)(C1)C[C@@](C)(C3)C2 | inactive
22 | Cc1noc(C)c1NC(=O)Nc1ccc2c(c1)C(=O)N([C@@H](C)CO)C[C@H](C)[C@@H](CN(C)C(=O)Nc1cccc3ccccc13)OCCCC[C@@H](C)O2 | inactive
23 | O=C1CCC(=O)N1Nc1ccccn1 | inactive
24 | COc1ccc(-c2c(C)oc3ccc(Cl)cc23)cc1 | active
25 | COc1ccc(S(=O)(=O)Nc2ccc3c(c2)C(=O)N([C@@H](C)CO)C[C@@H](C)[C@@H](CN(C)S(=O)(=O)c2ccc(Cl)cc2)OCCCC[C@@H](C)O3)cc1 | inactive
26 | O=C(C[C@@H]1C=C[C@@H](NC(=O)c2ccc3c(c2)OCO3)[C@@H](CO)O1)NCc1ccc(Oc2ccccc2)cc1 | inactive
27 | O=P(O)(O)C(Sc1ccc(Cl)cc1)P(=O)(O)O | inactive
28 | C[C@@H]1CN([C@@H](C)CO)C(=O)Cc2cc(NS(=O)(=O)c3ccc(Cl)cc3)ccc2O[C@@H]1CN(C)S(=O)(=O)c1cn(C)cn1 | inactive
29 | C[C@H](CO)N1C[C@H](C)[C@@H](CN(C)Cc2ccc3c(c2)OCO3)OCCCC[C@H](C)Oc2ccc(NS(=O)(=O)c3ccc(Cl)cc3)cc2C1=O | inactive
30 | CN1CCN(C(=O)C[C@H]2CC[C@@H]3[C@H](COC[C@@H](O)CN3C(=O)C3CCOCC3)O2)CC1 | inactive
31 | C[C@H](CO)N1C[C@H](C)[C@@H](CN(C)Cc2ccc(C(F)(F)F)cc2)OCCCC[C@H](C)Oc2ccc(N(C)C)cc2C1=O | inactive
32 | OC[C@@H](O)[C@@H](O[C@@H]1O[C@H](CO)[C@@H](O)[C@H](O)[C@H]1O)[C@H](O)[C@@H](O)CO | inactive
33 | Cc1noc(C)c1S(=O)(=O)Nc1ccc2c(c1)CC(=O)N([C@@H](C)CO)C[C@@H](C)[C@@H](CN(C)Cc1ccc(-c3ccccc3)cc1)O2 | inactive
34 | C[C@@H]1CN([C@H](C)CO)C(=O)c2cc(N(C)C)ccc2O[C@@H](C)CCCCO[C@H]1CN(C)C(=O)Nc1cccc2ccccc12 | inactive
35 | C[C@H]1CCCCO[C@H](CN(C)Cc2ccc(C(F)(F)F)cc2)[C@@H](C)CN([C@@H](C)CO)C(=O)c2cc(NS(=O)(=O)c3ccc(F)cc3)ccc2O1 | inactive
36 | O=C(c1ccccc1Cl)n1c2ccccc2c2ccccc21 | active
37 | Cc1noc(C)c1NC(=O)Nc1ccc2c(c1)C(=O)N([C@H](C)CO)C[C@H](C)[C@@H](CN(C)C(=O)Nc1ccc(C(F)(F)F)cc1)OCCCC[C@H](C)O2 | inactive
38 | CCN(CC)c1ccc2c(-c3ccc(S(=O)(=O)O)cc3S(=O)(=O)O)c3ccc(N(CC)CC)cc3[o+]c2c1 | inactive
39 | CC(C)NC(=O)Nc1ccc2c(c1)CC(=O)N([C@H](C)CO)C[C@@H](C)[C@H](CN(C)S(=O)(=O)c1cn(C)cn1)O2 | inactive
40 | O=C(C[C@@H]1CC[C@@H]2[C@H](COC[C@@H](O)CN2C(=O)c2cnccn2)O1)NCc1ccc(Oc2ccccc2)cc1 | inactive
